Results as given in the supplement of paper PMC12889115.
This is one part of the list. No stated cut-off is given here; in the data, active = 25% or less and inactive = the rest. Single values are uncertain, as repeats are few or missing.

Columns and labels:
[1] = tested on: Salmonella enterica serovar Typhimurium SL1344; assay: bacterial growth OD600 after 18 h in MHB with 0.5 µg/mL polymyxin B; higher = more bacterial growth (less inhibition); conditions: 25 µM; polymyxin B 0.5 µg/mL; system: broth
Method: (§1)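 Secondary screen of the 553 primary hits at 25 µM. (i) S. Typhimurium SL1344 grown in Mueller-Hinton broth with 0.5 µg/mL polymyxin B, OD600 read after 18 h. (ii) SAFIRE assay: RAW 264.7 macrophages infected with S. Typhimurium sifB::gfp (MOI 30); compound added 2 h post-infection; cells fixed at 18 h; GFP-positive pixel fraction per macrophage imaged by confocal microscopy and expressed as % of DMSO control.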

[2] = tested on: Salmonella enterica serovar Typhimurium SL1344; assay: intramacrophage bacterial GFP load (SAFIRE), percent of DMSO control (% of DMSO); higher = more intracellular bacteria (less inhibition); conditions: 25 µM; system: infected RAW 264.7 macrophages
Method: as §1
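Wherever bacterial growth OD600 after 18 h in MHB with 0.5 µg/mL polymyxin B is given: polymyxin B level opens the outer membrane while sparing the inner membrane, with novobiocin wells as reference growth inhibitor.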
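Wherever intramacrophage bacterial GFP load (SAFIRE), percent of DMSO control is given: compounds tested were the hits of an earlier 50 µM broth growth screen of a drug-like diversity library run with polymyxin B.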

SMILES	bacterial growth OD600 [1]	intramacrophage bacterial GFP load [2]
Cc1c(CN2Cc3ccccc3OC(c3ccccc3F)C2)cnn1C (stereo not drawn)	0.005	active: 13.3
CC#CCOc1ccc(CN(C(=O)c2ccccc2OC)C2CCCC2)cc1	-0.013	inactive: 141
Cc1nonc1C1CCCN1c1ccc(-c2nc(COc3ccccc3)no2)cn1 (stereo not drawn)	0.319	inactive: 165
COc1cccc(CC(C2CCN(C(=O)/C=C/c3ccccc3F)CC2)N(C)C(=O)CC(C)C)c1 (stereo not drawn)	-0.003	active: 12.7
COc1ccc(-c2ccc(C(=O)N(Cc3ccncc3)Cc3cccc(OCCc4ccc(F)cc4)c3)o2)cc1	-0.003	inactive: 69.8
COc1ccc(-c2nn(-c3ccccc3C)cc2CN(C)Cc2ccon2)cc1F	-0.001	inactive: 78.4
CCN(Cc1ccccc1)c1nc(CNC(=O)Cn2nc(C)c3ccccc3c2=O)nc2ccccc12	0.004	inactive: 45.3
CCOC(=O)C1(Cc2ccccc2C(F)(F)F)CCN(Cc2cnc(C)s2)CC1	0.004	active: 7.71
O=C(NC(c1ccccn1)C(F)(F)F)c1cn(C2CCCCC2)nn1 (stereo not drawn)	0.62	inactive: 83.6
CC(C)C[C@H](NC(=O)c1csc2nc(-c3cccc(C(F)(F)F)c3)cn12)C(N)=O	0	inactive: 124
Cc1cccc(C(=O)N2CCCC(C(=O)c3cccc4ccccc34)C2)c1 (stereo not drawn)	0.001	inactive: 106
COCCc1noc(-c2ccc(NC3CCCc4ccccc43)nc2)n1 (stereo not drawn)	0.001	inactive: 102
COc1ccc(-c2nn(-c3ccccc3C)cc2CN(C)Cc2cnccn2)cc1F	0.42	inactive: 52.6
COc1ccccc1CN1CCc2c([nH]c3ccccc23)C1c1cccc(O)c1 (stereo not drawn)	0.001	active: 0.0216
OCC1(Cc2ccccc2F)CCCN(Cc2cccc3ccccc23)C1 (stereo not drawn)	-0.012	active: 3.32
Cc1cccc(-c2cnc(C)nc2C2CCCN(C(=O)C34CC5CC(CC(C5)C3)C4)C2)c1 (stereo not drawn)	-0.006	inactive: 57.8
CCC(C)C(=O)N1CCc2ccc(NC(=O)CCc3ccc(C)cc3)cc2C1 (stereo not drawn)	0.155	inactive: 178
O=S(=O)(CC1CC1)c1ncc(CN2CCSCC2)n1CC1CCCCC1	0.001	inactive: 44.7
COc1ccccc1C(=O)C1CCCN(C(=O)CCc2nc3ccccc3s2)C1 (stereo not drawn)	-0.008	inactive: 166
COCCC(=O)Nc1ccc2c(c1)CN(C(=O)c1cc3c(s1)CCCCC3)CC2	0.002	inactive: 131
Cc1c(C(=O)N(C)C(C)C)sc2ncnc(NC[C@H]3C[C@@H]4C=C[C@H]3C4)c12	0.511	inactive: 89.7
CCN(CC)c1ccc(C(=O)N2CCCCC2CCn2cccn2)cn1 (stereo not drawn)	0.668	inactive: 200
CCS(=O)(=O)c1ncc(CN2CCCC(C)C2)n1CCCc1ccccc1 (stereo not drawn)	0.004	inactive: 27.1
CC(C)CC(=O)C1CCCN(C(=O)CC2(c3ccc(-c4ccccc4)cc3)CC(=O)N(C)C2=O)C1 (stereo not drawn)	-0.03	inactive: 88.2
Cc1ccc2c(c1)CN(C(=O)Cn1cc3ccccc3n1)CC(c1ccsc1)O2 (stereo not drawn)	0.048	inactive: 76.7
COc1cc(CC2(CCC(=O)N3CCC(Oc4cccc(Cl)c4)CC3)CCC(=O)N2)ccc1F (stereo not drawn)	-0.042	inactive: 65.9
O=C(C1CC12CCCCC2)N1CCc2onc(-c3ccccc3F)c2C1 (stereo not drawn)	0	inactive: 54.7
Cc1ccsc1CN(C)Cc1cnc(S(=O)(=O)C(C)C)n1Cc1ccccc1F	0.285	inactive: 66.1
C=C(C)CN(CC)Cc1c(C(=O)N2CCc3ccccc3C2)nc2ccc(Cl)cn12	-0.023	inactive: 62.7
